Data on 56 sequences can be found in the supplement of paper PMC7726561.

In all, about 1,400 sequences were measured (“thermal melting temperature (Tm) of peptide-HLA complex”: median about 60, lowest 2% from about 45 on). Some of the results follow.
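Further: cell lysates heated 10 min at 37–73 °C, remaining pHLA pulled down with pan-class I antibody, peptides quantified by DIA-MS versus 37 °C, Tm where half the complex is lost.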

This experiment deals with HLA-B*07:02. As to the kind of experiment: thermal melting temperature (Tm) of peptide-HLA complex; higher = more thermostable pHLA complex. Particulars: C1R-B*07:02.
Consider RPAPHPLFL, for which the thermal melting temperature was determined as 60.3 °C.

SPNSSILWL returned a thermal melting temperature of 61.7 °C.

The sequence LPRTVTQLV yielded a thermal melting temperature of 45.6 °C.

In the case of RPKTPPVVI, the thermal melting temperature turned out to be 59.6 °C.

QPASFAVSL displayed a thermal melting temperature of 62.8 °C.

LPRVGVGTSF: the thermal melting temperature came to 60.9 °C.

Turning to LPSQKTASL, the thermal melting temperature is 57.7 °C.

LPKIPSNATL: the thermal melting temperature was found to be 60 °C.

In turn, HPRDPNLLLSV had a thermal melting temperature of 61.8 °C.

QPHLSRQDL yielded a thermal melting temperature of 56.2 °C.

For FPSPIRLEF, the thermal melting temperature is 61.9 °C.

Regarding YPLPSARAL, the thermal melting temperature turned out to be 59.5 °C.

LPRPVPLVA returned a thermal melting temperature of 61.5 °C.

APAQTPAPAL had a thermal melting temperature of 56.9 °C.

KPKETVPTL: the thermal melting temperature was found to be 54.3 °C.

In turn, SPGPSRPGL yielded a thermal melting temperature of 56.1 °C.

The sequence WPRAGAPGAL registered a thermal melting temperature of 59.2 °C.

Sequence LPRGVLEGL yielded a thermal melting temperature of 62.8 °C.

TIASQRLTPL returned a thermal melting temperature of 59.5 °C.

In the case of LPDVPRIFL, the thermal melting temperature stood at 59.3 °C.

IPKSAVGEL returned a thermal melting temperature of 58.3 °C.

SPISHFLDL gave a thermal melting temperature of 63.1 °C.

Consider SPSNTRYLFL, for which the thermal melting temperature stood at 63.2 °C.

In turn, APNYRLKSL gave a thermal melting temperature of 62.1 °C.

Turning to VPYKVPAGVSL, the thermal melting temperature came to 62.1 °C.

GPAIERMGL displayed a thermal melting temperature of 61.1 °C.

For TPAVGRLEV, the thermal melting temperature came out at 60.6 °C.

Regarding YPAPGLKTFL, the thermal melting temperature stood at 60.3 °C.

As to GPRNVLLFL, the thermal melting temperature stood at 55.1 °C.

Sequence FPRSVVEFL had a thermal melting temperature of 62 °C.

On to SPWTGRFYSL, for which the thermal melting temperature was 56.7 °C.

SPRGAGYLF yielded a thermal melting temperature of 63 °C.

In turn, SPNTAGLRSL had a thermal melting temperature of 53.9 °C.

As to VPRPPSNPP, the thermal melting temperature turned out to be 56.4 °C.

APDSQRLKL had a thermal melting temperature of 59 °C.

In turn, KPAQFATTVL showed a thermal melting temperature of 60.1 °C.

Take RPAAGFVAGL: the thermal melting temperature was 57 °C.

The sequence VPQGSKLEL had a thermal melting temperature of 57.7 °C.

In the case of IPDLKVGTL, the thermal melting temperature turned out to be 46.6 °C.

VPHPNWPNHTL displayed a thermal melting temperature of 58.2 °C.

Sequence TPAVGPPL yielded a thermal melting temperature of 63.6 °C.

Turning to NPRFGGKEL, the thermal melting temperature turned out to be 56.2 °C.

In the case of TPRKPVLSV, the thermal melting temperature amounted to 61.6 °C.

WPKDVGIVA had a thermal melting temperature of 61.3 °C.

The sequence LPSTLRTLEL displayed a thermal melting temperature of 61.4 °C.

For the sequence MPQGNPLLL, the thermal melting temperature is 62.6 °C.

APAPRPSLL registered a thermal melting temperature of 60.1 °C.

Turning to APPGVRGAL, the thermal melting temperature amounted to 55.6 °C.

In turn, HPISNNNSL gave a thermal melting temperature of 41.6 °C.

Consider YPRLGGFVM, for which the thermal melting temperature stood at 62.7 °C.

For the sequence FPRPVTVEP, the thermal melting temperature worked out at 57.1 °C.

With SPAPDPRAL, the thermal melting temperature came to 58.7 °C.

QPTVRITEL showed a thermal melting temperature of 59.3 °C.

The sequence LPGISREAL had a thermal melting temperature of 41.3 °C.

SPLHLAAEL showed a thermal melting temperature of 50.2 °C.

With RPNGTKVAVL, the thermal melting temperature came to 60.1 °C.
